Assay results published in ChEMBL document CHEMBL1201862, “PubChem BioAssay data set” (2004).
Structures can show the parent of a compound that is named as a salt.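 Where inhibition never reached the appropriate level, the endpoint shown equals the highest concentration tested. Otherwise, values were interpolated linearly from a five-concentration, 48-hour dose response in 96-well plates. GI50 is the concentration that inhibits growth by half.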 Activity calls are given as the source filed them. Rule as the data show it: active = GI50 up to about 1.1 µM and inactive = higher. Peptide text beside a SMILES is read from it. * marks the point of attachment. Fmoc = O=C(OCC1c2ccccc2-c2ccccc21)*; Boc = CC(C)(C)OC(=O)*

tested on: NCI-H322M; assay: growth of human tumour cells (NCI), 48 h

SMILES	GI50
NNC(=O)COc1nc(-c2cccs2)nc2ccc(I)cc12	inactive: 16.4 µM
O=C(/C=C/c1ccccc1)NC1C=Nc2ccc(Cl)cc2NC1=O (centres undefined)	inactive: 36.1 µM
C=CCc1cc(C=C(C#N)C#N)cc(OC)c1O	inactive: > 100 µM
CC1=CC[C@H](C(C)C)C(C(O)[C@@H](C)O[Si](c2ccccc2)(c2ccccc2)C(C)(C)C)C1=O (some centres undefined)	inactive: 23 µM
O=C1CC[C@H]2CNC(=O)C[C@H]2C1	inactive: > 100 µM
COc1cccc2c1OCC1Cc3ccccc3OC21 (centres undefined)	inactive: 71.9 µM
O=C(c1ccco1)N(C(=S)OC12CC3CC(CC(C3)C1)C2)c1ccccc1	inactive: 29.6 µM
N#Cc1c(-c2ccccc2)c(/C=N/c2ccc(F)cc2)c(=O)n2c1[nH]c1ccccc12	inactive: 9.64 µM
Nc1nc2c(ncn2CC(CO)CC(c2ccccc2)P(=O)(O)O)c(=O)[nH]1 (centres undefined)	inactive: > 100 µM
NC1=NS(=O)(=O)Nc2nc(-c3ccc(Cl)cc3)[nH]c21	inactive: > 100 µM
CN1C2CCC1CC(CCNC(c1ccccc1)c1ccccc1)C2 (centres undefined)	inactive: 36.7 µM
COc1ccc(CN(CCc2c[nH]c3ccccc23)Cc2ccc(OC)cc2)cc1	inactive: 3.29 µM
[N-]=[N+]=Nc1c(C=O)c(=O)n(-c2ccccc2)c2ccccc12	inactive: 67.9 µM
O=C(O)c1cccc(S(=O)(=O)NN2C(=O)CSC2c2ccc(Cl)cc2Cl)c1 (centres undefined)	inactive: > 100 µM
CCCCCCCC(=O)OCC1OC(OC)C(NC(=O)N(CCCl)N=O)C(O)C1O (centres undefined)	inactive: 27.7 µM
Cc1nc(=O)[nH]c(NCCNCCO)c1C(=O)Nc1cccc2cc3ccccc3cc12	inactive: > 100 µM
CCOc1ccc2nc(NC(=O)C(=O)C(c3cnc4ccccc4n3)[N+](=O)[O-])sc2c1 (centres undefined)	inactive: > 100 µM
O=C1c2ccccc2C(=O)C1(O)c1c[nH]c2ccccc12	inactive: > 100 µM
O=C1Cc2c([nH]c3ccc([N+](=O)[O-])cc23)-c2ccccc2N1 [ALSTERPAULLONE]	active: 0.282 µM
COc1ccc(S(=O)(=O)O)cc1NS(=O)(=O)c1ccc(C)cc1	inactive: > 100 µM
COC1CC(CC2CCC(C)C(C(C)C(=O)O)O2)OC2(OC(C)(C3CCC(C)(C4OC(C5OC(O)(CO)C(C)CC5C)CC4C)O3)CC2C)C1C (centres undefined)	active: 0.918 µM
O=C1CC(NCc2ccccc2)c2c(Cl)sc(Cl)c21 (centres undefined)	inactive: 52.4 µM
Cc1nc(-n2nc(-c3ccccc3)cc2-c2ccccc2)sc1C(=O)CC(=O)C(=O)Nc1ccc(Cl)c(Cl)c1	inactive: > 10 µM
O=C1c2ccccc2N1C(=O)c1ccccc1[N+](=O)[O-]	inactive: > 10 µM

SMILES	GI50
Nc1ccc(Oc2ccc(C3(c4ccc(Oc5ccc(N)c(O)c5)cc4)C4CC5C6CC7CC5C3C(C7)C6C4)cc2)cc1O	inactive: 1.34 µM
Cc1cc(Cc2cc(C)cc(C(C)(C)C)c2O)c(O)c(Cc2cc(C)cc(C(C)(C)C)c2O)c1	inactive: 3.06 µM
O=C(O)CN1CCN2CCOCCN(CC1)CCN(CC(=O)O)CC2	inactive: > 100 µM
O=c1[nH]c(=O)n(C2CC(O)C(CS)O2)cc1F (centres undefined)	inactive: 37.2 µM
Cc1cc2[nH]c3[nH]c(=O)[nH]c(=O)c3c2cc1C	inactive: > 100 µM
CC(O)CNC(=O)C(C)Oc1ccc(OCC2CCCCC2)cc1 (centres undefined)	inactive: > 100 µM
O=c1c2cc(I)ccc2nc(SCc2n[nH]c(=S)o2)n1Cc1ccccc1	inactive: 20.1 µM
Cn1cccc(C(=O)c2ccccc2)c1=O	inactive: > 100 µM
O=C1c2c(Br)sc(Br)c2[C@H]2OC(=S)N[C@@H]12	inactive: 15.4 µM
CN1CN(c2ccccc2)C2(CCN(C3Nc4ccccc4O3)CC2)C1=O (centres undefined)	inactive: 29.4 µM
CC1(C)NC(C(=O)c2ccccc2)=[N+]([O-])C1(O)c1ccccc1 (centres undefined)	inactive: > 100 µM
CCC1c2[nH]c3ccccc3c2C[C@H]2C(=O)NC(Cc3ccccc3)C(=O)N12 (some centres undefined)	inactive: 36.2 µM
COc1ccc(Cc2nccc3cc(OC)c(OC)cc23)cc1OC [PAPAVERINE HYDROCHLORIDE]	inactive: 59 µM
O=C1CCCCCC1CC(Sc1ccccc1)Sc1ccccc1 (centres undefined)	inactive: > 100 µM
CCCOP1(=O)C=C(C)C(Cl)=C(C)C1 (centres undefined)	inactive: 22.2 µM
N#CC(C#N)=CNCCN1CCN(C=C(C#N)C#N)CC1	inactive: > 100 µM
CC(NC(=O)CNP(=O)(c1ccccc1)c1ccccc1)C(=O)NC(Cc1ccccc1)C(=O)OCc1ccccc1 (centres undefined)	inactive: 56 µM
CC(=O)NC1C(O)C(O)C(CO)OC1n1ncc(=O)[nH]c1=O (centres undefined)	inactive: > 100 µM
O=C(/C=C/c1ccc(Cl)cc1)c1nc2ccccc2[nH]1	inactive: 28.9 µM
C[Si](C)(c1ccccc1)C1CC(=O)CC(=O)C1	inactive: > 100 µM
CC1(C)C(=O)CCC(=O)C(C)(C)C2=CC=C(O2)C(C)(C)C(=O)CCC(=O)C(C)(C)C2=CC=C1O2	inactive: > 100 µM
COc1cc(S(=O)(=O)Nc2ccc(-c3csc(N4C(=O)C(Cl)C4c4cccc(Oc5ccccc5)c4)n3)cc2)ccc1Cl (centres undefined)	inactive: > 100 µM
Cn1nc(N)nc1N=S(C)(C)=N	inactive: > 100 µM
O=c1cc(CO)n(CCc2c[nH]c3ccccc23)cc1O	inactive: 27.9 µM

SMILES	GI50
NS(=O)(=O)c1ccc(N=C2C(=O)Nc3ccccc32)cc1	inactive: > 100 µM
COC1=C(OC)C(=O)C(Cc2c(Cl)nc3sc(C)cn23)=C(C)C1=O	inactive: 17 µM
CN1CCc2cc3c4cc2C1Cc1ccc(cc1)Oc1cc(ccc1O)CC1c2c(cc(O)c(c2O4)O3)CCN1C (centres undefined)	inactive: 2.26 µM
C[n+]1c2ccccc2c(NC(CCC(N)=O)C(=O)O)c2ccccc21 (centres undefined)	inactive: > 100 µM
CCCC[C@@H](C)/C=C1\CN2CCC[C@H]2[C@@](C)(OCc2ccccc2)[C@@H]1O	inactive: > 14.7 µM
COc1ccc(C(Nc2ncccn2)c2cc3c(cc2O)OCO3)cc1 (centres undefined)	inactive: 24.8 µM
CC(=O)OCC1OC(N2C(=O)CC(N)=Nc3ccccc32)C(OC(C)=O)C(OC(C)=O)C1OC(C)=O (centres undefined)	inactive: 75.7 µM
O=c1cc(/C=C/c2ccc(O)c(O)c2)oc(/C=C/c2ccc(O)c(O)c2)c1	inactive: 4.82 µM
Cc1nc2c(=O)n(-c3ccccc3)c3ccccc3c2o1	inactive: > 100 µM
CC(C)(C)[Si](Nc1ccccc1)(c1ccccc1)c1ccccc1	inactive: 15.3 µM
O=C1N=C2N=C(c3ccc(Cl)cc3)N(c3ccc(Cl)cc3)N2Sc2ccccc21	inactive: 57.1 µM
O=P(O)(O)C(N=C(Nc1ccccc1)Nc1ccccc1)P(=O)(O)O	inactive: > 100 µM
O=Cc1ccc(OC[C@H]2COC(=O)N2)cc1	inactive: > 100 µM
CC(C)=CCNc1ncnc2[nH]cnc12	inactive: > 100 µM
CC1(C)CCC[C@]2(C)[C@@H](C=O)C(C=O)=CC[C@@H]12 [POLYGODIAL]	inactive: 50.9 µM
O=C(O)CC1CC=C[C@H]2c3cc4c(cc3C(=O)NC12)OCO4 (some centres undefined)	inactive: > 75 µM
CC1=C(C(=O)NNC(=O)CC#N)CC(C(=O)NNC(=O)CC#N)=C(C)N1	inactive: > 100 µM
Cc1cc(O)nc(NNC(C#N)c2cccc(O)c2)n1 (centres undefined)	inactive: > 100 µM
CC(N)C(=O)OCN1C(=O)C2C3C=CC(C2C1=O)C1C2C(=O)N(COC(=O)C(C)N)C(=O)C2C31 (centres undefined)	inactive: > 100 µM
CC(=S)N/C=C1/C(=O)C=C(C)OC1=O	inactive: > 100 µM
CN1CCCCC1CCN1CCCCC1 (centres undefined)	inactive: > 100 µM
CC(=O)OC1C2CCC3C(C)(O)C4CC(O)C(C)(C)C4(O)C(O)CC13CC2(C)O (centres undefined)	inactive: > 100 µM
COC(=O)c1ccccc1CC1Cc2cc3c(cc2C1=O)CCC3 (centres undefined)	inactive: > 73.3 µM
c1ccc(/C(=N/Nc2ccncn2)c2ccccn2)cc1	inactive: 33.6 µM

SMILES	GI50
CC(=O)N(C(C)=O)C1=C2c3ccccc3N(S(=O)(=O)c3ccccc3)C2n2c(=O)n(-c3ccccc3)c(=O)n2C1 (centres undefined)	inactive: 39.5 µM
COc1ccc2c(=O)c(-c3cc4c(cc3OC)OCO4)coc2c1	inactive: > 100 µM
Nc1ccccc1-n1c2c(c3ccccc3c1=O)C(=O)c1ccccc1-2	inactive: 35.3 µM
CC1=CC(=O)NP(=O)(Oc2ccc(C)cc2)N1 (centres undefined)	inactive: > 100 µM
Cc1nn(C)cc1P(=S)(c1ccccc1)c1ccccc1	inactive: > 100 µM
COc1cc(NC(C)=O)c2[nH]c3c(C)cc(NC(C)=O)c(C)c3c2c1	inactive: > 100 µM
NC(Cc1ccc(OCc2ccccc2)cn1)C(=O)OCc1ccccc1 (centres undefined)	inactive: > 100 µM
COC(=O)C12CC(C3CC31)C1CC12 (centres undefined)	inactive: > 100 µM
Cc1cc2c(cc1C)[n+]([O-])c(C(=O)/C=C/c1ccc3c(c1)OCO3)c(C)[n+]2[O-]	inactive: 53.3 µM
C/C(=N/NC(N)=S)C(CN(C)C)C(C1=C(O)c2ccccc2OC1)c1ccccc1 (centres undefined)	inactive: > 100 µM
COc1cc2c(cc1OCCCCOc1cc3nc(C)nc(Cl)c3cc1OC)N=C[C@@H]1CCCN1C2=O	inactive: 1.97 µM
CC(C)(C)OC(=O)NCCCCC(NC(=O)C(Cc1c[nH]c2ccccc12)NC(=O)OCC1c2ccccc2-c2ccccc21)C(=O)N1CCCC1C(=O)NCC(N)=O (centres undefined) (Fmoc-WK(Boc)PG-NH2; configuration not given here)	inactive: > 100 µM
COc1cc2c(c(OC)c1OC)C(=O)NCCC2	inactive: > 100 µM
CCCCON1C[C@@H](O)C(O)[C@@H](O)C1 (some centres undefined)	inactive: > 100 µM
C[N+](C)(C)CC1CCCC/C1=N\OC(=O)c1ccccc1 (centres undefined)	inactive: > 100 µM
CCCCN/C(=N/C#N)NCc1ccccc1	inactive: > 100 µM
COc1ccc(CNc2cnc3ccc(N)cc3n2)cc1	inactive: > 100 µM
CCOC(=O)Cc1nc2ccc3c(c2nc1O)C(=O)c1ccccc1C3=O	inactive: 33.1 µM
COc1ccc(/C=C/c2ccnc3ccccc23)cc1OC	inactive: 28.4 µM
Oc1c(CN2CCCC2)ccc2cccnc12	inactive: 24.2 µM
CCC(NC(C)c1ccccc1)C(O)c1ccc(OCc2ccccc2)c(OCc2ccccc2)c1 (centres undefined)	inactive: 14.4 µM
O=C(/C=C/c1ccc2c(c1)OCO2)c1ccc(O)cc1	inactive: 16.5 µM
